These results are taken from the supplement of paper PMC7826260.

This is one part of the list. One pool of 16,384 single-stranded DNAs met each Rep nickase domain in vitro (3 µM enzyme, 1 h, 37 °C); shown is the middle of each 90-letter strand. Values are log2 of uncut reads against the no-enzyme pool; uncut sequences lie near 0, cut ones below; no hit call is given. Reads are scaled to the total; uncut strands gain when others are lost, and binding without cutting may add a little.

For this test, the system named is T1, Rep nickase domain of wheat dwarf virus.
T1 sequence (residues 1-137 of Rep, tag left off): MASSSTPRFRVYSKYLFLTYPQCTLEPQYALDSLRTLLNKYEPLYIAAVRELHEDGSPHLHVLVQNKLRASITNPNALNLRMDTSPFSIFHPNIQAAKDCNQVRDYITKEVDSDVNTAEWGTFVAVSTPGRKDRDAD
Briefly: uncleaved DNA left, log2 of reads against the no-enzyme library (log2 ratio); higher = less cleavage (more negative = more Rep cleavage of the k-mer); sequences stand for … in CTCGTCCG…ACCGGAGA
The procedure:
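A pool of 90-nt single-stranded DNAs with seven random bases just before the constant AC of the nick site (name = the seven bases) was cut by 3 µM recombinant His6-SUMO-tagged Rep nickase domain (300 nM DNA, 50 mM HEPES pH 8.0, 50 mM NaCl, 1 mM MnCl2, 1 h, 37 °C, three replicates). Uncut DNA was amplified and sequenced.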
In the case of CCGCCTC, the “uncleaved DNA left (log2)” value is -0.153.

As to GTCCGCT, the “uncleaved DNA left (log2)” value was 0.0689.

On to AATTCCG, for which the “uncleaved DNA left (log2)” value is -0.0948.

For the sequence GATAAAG, the “uncleaved DNA left (log2)” value was -0.00814.

CTCCGCA: the “uncleaved DNA left (log2)” value stood at 0.112.

As to GCTCAAG, the “uncleaved DNA left (log2)” value was -0.0203.

Turning to GCCGATA, the “uncleaved DNA left (log2)” value amounted to 0.00163.

For the sequence AATCTTT, the “uncleaved DNA left (log2)” value is -0.0959.

Turning to AGTCCCC, the “uncleaved DNA left (log2)” value worked out at 0.0581.

For TGTTTCG, the “uncleaved DNA left (log2)” value was -0.19.

Turning to CAAGCTA, the “uncleaved DNA left (log2)” value was -0.11.

On to CTGATAT, for which the “uncleaved DNA left (log2)” value stood at 0.0934.

Regarding CCTTTTC, the “uncleaved DNA left (log2)” value is -0.131.

Consider CGATCGA, for which the “uncleaved DNA left (log2)” value is -0.0491.

In the case of CGGTATT, the “uncleaved DNA left (log2)” value is -0.37.

Turning to GGTCTGT, the “uncleaved DNA left (log2)” value came out at 0.072.

For CAGTATA, the “uncleaved DNA left (log2)” value was -0.053.

As for AAGTTGG, the “uncleaved DNA left (log2)” value was -0.0824.

On to GGATGGC, for which the “uncleaved DNA left (log2)” value is 0.108.

As for TGATTTA, the “uncleaved DNA left (log2)” value came out at 0.0607.

AAGATAA: the “uncleaved DNA left (log2)” value was 0.141.

With TGCCGGG, the “uncleaved DNA left (log2)” value worked out at 0.011.

Consider CTTCGGC, for which the “uncleaved DNA left (log2)” value was 0.0603.

Consider AGCCCGA, for which the “uncleaved DNA left (log2)” value was 0.0619.

Take AATTAAG: the “uncleaved DNA left (log2)” value stood at 0.0597.

CGGCCGA: the “uncleaved DNA left (log2)” value is -0.0204.

For the sequence GAAACCC, the “uncleaved DNA left (log2)” value worked out at 0.167.

As to GACAGCT, the “uncleaved DNA left (log2)” value was -0.02.

GTTCAAA: the “uncleaved DNA left (log2)” value worked out at 0.0475.

As to CACTACA, the “uncleaved DNA left (log2)” value is -0.0571.

For TCCATCC, the “uncleaved DNA left (log2)” value is -0.0412.

For the sequence GTGCGAG, the “uncleaved DNA left (log2)” value came to 0.159.

As for CTGTCAA, the “uncleaved DNA left (log2)” value is 0.0769.

CGAATTA: the “uncleaved DNA left (log2)” value was found to be 0.0628.

Turning to CTGAAAC, the “uncleaved DNA left (log2)” value stood at 0.101.

Take GCGAACT: the “uncleaved DNA left (log2)” value amounted to 0.127.

As for TGGTGGT, the “uncleaved DNA left (log2)” value was -0.106.

On to TGCGTAT, for which the “uncleaved DNA left (log2)” value is -0.244.

Take ATCTCCC: the “uncleaved DNA left (log2)” value is -0.263.

Consider ATCTGCG, for which the “uncleaved DNA left (log2)” value was -0.139.
